# In all, about 410,000 compounds went through this assay and about 6,400 (1.6%) were called active. This list was built around the results that the source calls inconclusive (neither active nor inactive); the mix of calls is not that of the screen. The call rests on the fitted dose curve; in most records, active means well fitted inhibition curve with a large enough effect; inconclusive means small, poorly fitted or top-dose-only effect; inactive means no such curve, though single readings can be large or run the other way. No potency is given beside an inconclusive call; the fits are too rough.
# Target: Glucagon-like peptide 1 receptor (Homo sapiens) (UniProt P43220)
# UniProt P43220, sequence (P43220 whole entry, looked up): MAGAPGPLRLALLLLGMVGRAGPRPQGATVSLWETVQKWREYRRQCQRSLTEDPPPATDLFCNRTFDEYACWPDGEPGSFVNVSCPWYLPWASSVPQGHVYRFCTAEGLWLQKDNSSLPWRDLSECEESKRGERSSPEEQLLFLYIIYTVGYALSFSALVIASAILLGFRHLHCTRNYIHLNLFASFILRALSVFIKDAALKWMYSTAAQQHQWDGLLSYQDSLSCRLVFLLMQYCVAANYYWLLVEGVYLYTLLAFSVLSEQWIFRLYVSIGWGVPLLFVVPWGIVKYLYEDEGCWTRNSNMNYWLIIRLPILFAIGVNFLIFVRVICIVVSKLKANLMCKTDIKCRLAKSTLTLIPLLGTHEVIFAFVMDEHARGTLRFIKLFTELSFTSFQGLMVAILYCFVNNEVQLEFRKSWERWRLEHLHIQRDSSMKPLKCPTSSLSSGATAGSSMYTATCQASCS
# Assay: qHTS of GLP-1 Receptor Inverse Agonists (Inhibition Mode); further: nearly all actives have a fitted effect of over 55% in size
# Details: HEK293 GLP-1R CRE-luciferase, luminescence, 24 h, GLP-1R form is constitutively active; activity change, negative = inhibition: at 38.3 µM (top of the series) unless noted
# How it was run: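 Assay principle: reduced luminescence from a cAMP-responsive reporter in HEK293 cells co-expressing a constitutively active GLP-1R. Conditions: 24 hr compound incubation, 37 deg C, 5% CO2.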
# On the % scale 0 is the no-effect control and ±100 the full control effect; potency means the concentration at half of the fitted maximal effect; tags describe the fitted curve by direction and shape.
Compound,Potency,"activity change, negative = inhibition"
CCCCCc1cc(=O)oc2c(C(CCN3CCCCC3)c3cc(OC)c(OC)c(OC)c3)c(OC)cc(OC)c12 (stereo unspecified),"inconclusive [inhibitor, partial curve, poor fit]",–
CCOc1ccc(C(=O)Nc2ccccc2N2CCCC2)cc1,"inconclusive [inhibitor, single point]",–
O=C(CCC1N=C2c3ccccc3N=C(SCc3ccccc3F)N2C1=O)NC1CCCCC1 (stereo unspecified),"inconclusive [inhibitor, partial curve, poor fit]",–
CCCCn1nc2cc(C(=O)NCC34CC5CC(CC(C5)C3)C4)ccc2c1OC,"inconclusive [inhibitor, single point]",–
O=C(NCc1ccccc1Cl)c1ccccc1CCc1ccccc1,"inconclusive [inhibitor, partial curve, poor fit]",–
COc1ccc(C(=O)COC(=O)c2ccccc2O)c(OC)c1,"inconclusive [inhibitor, partial curve, poor fit]",–
COc1cccc(C(=O)Nc2cccc(NC(=O)c3ccccc3Cl)c2)c1,"inconclusive [inhibitor, single point]",–
CCOc1ccc(OCCN(C)Cc2ccccc2)cc1,"inconclusive [inhibitor, partial curve, poor fit]",–
CN(c1ccccc1)S(=O)(=O)c1ccc(C(=O)Nc2cccc(S(=O)(=O)N3CCOCC3)c2)cc1,"inconclusive [inhibitor, partial curve, poor fit]",–
CC(CCc1ccccc1)NC(=O)CCCn1ncn2c(cc3occc32)c1=O (stereo unspecified),"inconclusive [inhibitor, partial curve, poor fit]",–
CCNC(=S)N(CCc1c(C)[nH]c2ccc(C)cc12)Cc1ccco1,"inconclusive [inhibitor, single point]",–
Fc1ccc(-n2cc(-c3ccccc3)c3c(NC4CCCCC4)ncnc32)cc1,–,inactive: -32.2%
CCOC(=O)c1cccc(NC(=O)c2cc3c(=O)n(Cc4ccccc4)ccc3nc2C)c1,"inconclusive [inhibitor, single point]",–
CSc1ncc(C(=O)Nc2ccccc2C(=O)c2ccccc2)c(C(F)(F)F)n1,"inconclusive [inhibitor, single point]",–
CC(C)(C)CC(C)(C)n1nnnc1N,–,inactive: 57.1%
COCCC(=O)N1CCCC(C(=O)c2ccc(Oc3ccccc3)cc2)C1 (stereo unspecified),"inconclusive [inhibitor, partial curve, poor fit]",–
Cc1ccc(CN(C)C(=O)C2CCC(=O)N(CCc3ccccc3)C2)o1 (stereo unspecified),–,inactive: 2.02%
Cc1ccccc1OCC(=O)N/N=C/c1cccc2cccnc12,"inconclusive [inhibitor, single point]",–
COc1ccc(C(=O)NC(=S)Nc2ccc3oc(=O)ccc3c2)cc1,–,inactive: 12.9%
Cc1nc(-c2cccc(S(=O)(=O)N3CCCCC3)c2)cs1,"inconclusive [inhibitor, single point]",–
COc1ccc(NC(=O)c2cc3c(s2)-c2c(C)cccc2OC3)c(OC)c1,–,inactive: 0.08%

Compound,Potency,"activity change, negative = inhibition"
CSc1nc2ccccc2c(=O)n1C1CCCCC1,"inconclusive [inhibitor, partial curve, poor fit]",–
Cc1ccc(C)c(OCCC(=O)N2CCN(S(=O)(=O)c3cc(C)ccc3C)CC2)c1,active: 11.2 µM,–
CCOC(=O)CCCc1ccc(/C(C)=N/NC(=S)NC)cc1,"inconclusive [inhibitor, partial curve, poor fit]",–
CCc1cccc(NC(=O)c2cccc3c2C(=O)N(CC2CCCO2)C3)c1 (stereo unspecified),"inconclusive [inhibitor, single point]",–
CCC(CC)c1nnc(NC(=O)CCc2ccc(OC)cc2)s1,"inconclusive [inhibitor, partial curve, poor fit]",–
COc1cccc(/C=N/NC(=O)c2cc3c(OC)c(OC)ccc3[nH]2)c1OC,"inconclusive [inhibitor, full curve, poor fit]",–
COc1ccc(CCNC(=O)c2cc3c(-c4ccccc4F)nn(C)c3s2)c(OC)c1,"inconclusive [inhibitor, partial curve]",–
Cc1cc(C)c(C#N)c(SCC(=O)Nc2nonc2N)n1,–,inactive: 73.4%
O=C(Nc1cccc(C(F)(F)F)c1)C1CCCCC1,"inconclusive [inhibitor, single point]",–
CC(O)(c1ccccc1)c1nc(-c2cccc(C(F)(F)F)c2)cs1 (stereo unspecified),"inconclusive [inhibitor, single point]",–
CCCc1cc(=O)[nH]c(Nc2cccc(Cl)c2Cl)n1,"inconclusive [inhibitor, single point]",–
O=C(Nc1ccc(-c2cn3ccsc3n2)cc1)C1COc2ccccc2O1 (stereo unspecified),"inconclusive [inhibitor, single point]",–
COc1ccc(C(=O)/C=C/c2cn(CC(O)CN3CCN(C)CC3)c3ccccc23)cc1OC (stereo unspecified),"inconclusive [inhibitor, partial curve, poor fit]",–
Cc1ccc(CSC2=NCCN2S(=O)(=O)c2ccc(C)cc2)cc1,"inconclusive [inhibitor, single point]",–
COc1ccc2cc(Br)ccc2c1CC(=O)NCCCN1CCOCC1,"inconclusive [inhibitor, partial curve, poor fit]",–
CCN1C(=O)c2ccccc2Sc2ccc(NC(C)=O)cc21,"inconclusive [inhibitor, full curve]",–
Fc1ccc(N/N=C/c2cccnc2)c(F)c1,"inconclusive [inhibitor, full curve, poor fit]",–
O=c1cc(CN2CCN(c3ccccc3)CC2)nc2scc(-c3ccccc3)n12,"inconclusive [inhibitor, partial curve, poor fit]",–
NC(=S)N/N=C1\CC(c2ccc3c(c2)OCCCO3)Oc2ccc(F)cc21 (stereo unspecified),active: 12.6 µM,–
O=C(c1cccc(Cl)c1)N1CCN(Cc2ccc3c(c2)OCO3)CC1,"inconclusive [inhibitor, partial curve, poor fit]",–

# From PubChem BioAssay AID624417 (National Center for Advancing Translational Sciences (NCATS), 2012)
